# In ChEMBL document CHEMBL1201862, “PubChem BioAssay data set” (2004):
# System: NCI-H322M
# Test: inhibition of tumour cell growth, NCI panel, 48 h
row,Structure (SMILES),GI50
1,COc1ccc(C(=O)Nc2ccccc2)cc1[N+](=O)[O-],inactive: > 100 µM
2,Nc1nc(N)c2nn(-c3ccc(C(=O)O)cc3)nc2n1,inactive: > 100 µM
3,O=C1c2ccccc2/N=C(/c2cc3c(cc2Cl)Sc2nccn2S3(=O)=O)OS(=O)(=O)N1c1ccccc1,inactive: 12.6 µM
4,O=[N+]([O-])c1cc(Cl)cc2c1nc(NCCO)c1ccccc12,inactive: 6.55 µM
5,Oc1c(Br)cc(Br)cc1CN(Cc1cc(Br)cc(Br)c1O)C1CCCCC1,inactive: 51.8 µM
6,O=[N+]([O-])c1cccnc1S(=O)(=O)c1ccccc1,inactive: 21.3 µM
7,[N-]=[N+]=CC(=O)OCC(N)C(=O)O (stereo not given),inactive: 1.26 µM
8,C=C(C)c1nc(Oc2ccccc2)nc(Oc2ccccc2)n1,inactive: 17.2 µM
9,O=C(OCC(OC(=O)c1ccccc1)C(OC(=O)c1ccccc1)C(OC(=O)c1ccccc1)c1cnn(-c2ccccc2)n1)c1ccccc1 (stereo not given),inactive: > 100 µM
10,S=C(Cc1ccc2c(c1)Sc1ccccc1O2)N1CCOCC1,inactive: 53.7 µM
11,N#CC(C#N)SCc1ccccc1,inactive: > 65.9 µM
12,O=C(/C=C/c1ccc2c(c1)OCO2)NCCc1ccco1,inactive: 76.4 µM
13,C/C(CC(=O)Nc1ccc(NC(=O)C/C(C)=N\NC(N)=O)cc1)=N/NC(N)=O,inactive: > 100 µM
14,CCCN(CCC)CCc1cc(C(C)=O)n(S(=O)(=O)c2ccc(C)cc2)c1,inactive: > 100 µM
15,CC1=C[C@H](O)[C@@]2(C)[C@@H]([C@@H]1C)[C@H]1CC[C@@H]3[C@@]4(C)CC[C@H](O)C(C)(C)[C@@H]4CC[C@@]3(C)[C@]1(C)C[C@@H]2O,inactive: 14.8 µM
16,O=CC(O)C(O)C1OC(=O)c2cc(O)c(O)c(O)c2C2=C(O)C(O)=C3OC(=O)c4c(c(O)c(O)c5c4C3C2C(=O)O5)-c2c(cc(O)c(O)c2O)C(=O)OCC1O (stereo not given),inactive: 29.6 µM
17,O=C1N(c2ccccc2)C2(O)C(=O)c3ccccc3C2(O)N1c1ccccc1 (stereo not given),inactive: > 100 µM
18,CN(CCCNC(=O)c1cn(C)c2c1ccc1ccccc12)CCCNC(=O)c1cn(C)c2c1ccc1ccccc12,inactive: 3.13 µM
19,O=C1OC(C2Cc3ccc4ccccc4c3C2=O)c2ccccc21 (stereo not given),inactive: 34.8 µM
20,O=c1cc(NNc2ccc3ccccc3c2)[nH]c(=S)[nH]1,inactive: > 100 µM
21,Cc1c2c(n3c(nc4ccccc43)c1C#N)N(c1ccc(F)cc1)CC2,inactive: > 100 µM
22,NC(=O)NNc1nc2ccccc2c(=O)n1NC(=O)C(=O)Nc1ccc(Cl)cc1Cl,inactive: > 100 µM
23,CCOC(=O)O/C(=C\c1ccc(OC)cc1)c1c(OC(=O)OCC)n(C(=O)OCC)c2ccccc12,inactive: 35.1 µM

row,Structure (SMILES),GI50
1,Nc1onc2c1Cc1c(noc1N)-c1ccccc1-2,inactive: 76.4 µM
2,COc1ccc2c(c1)c(=O)c1c(NCCN(C)C)ccc3c(=O)n(CCN(C)C)c(=O)n2c31,active: 0.04 µM
3,COc1ccc2nc3c([N+](=O)[O-])ccc4c3c(c2c1)N=CN4CCCN(C)C,active: 0.957 µM
4,CCCSc1cc(Cl)c(C)cc1S(=O)(=O)n1ccnc1OCCCN(C)C,inactive: > 100 µM
5,COc1ccc2c(c1)OC[C@@H]1c3cc(O)c(OCc4ccccc4)cc3O[C@H]21,inactive: 38 µM
6,CCC1CN2CCc3cc(OC)c(OC)cc3C2CC1CC1c2cc(OC)c(OC)cc2CCN1C(=O)CNC(=O)OC(C)(C)C (stereo not given),inactive: 4.46 µM
7,NNC(=S)N/N=C(\CCCC(=O)NCCc1ccccc1)CC(=O)c1ccccc1,inactive: > 100 µM
8,Nc1ccccc1/C(O)=C1/CCOC1=O,inactive: > 100 µM
9,CN(C)CCNC(=O)c1cccc2nc(-c3ccccc3)oc12,inactive: 36.2 µM
10,O=C(/C=C/c1ccc(Cl)cc1)c1ccncc1,inactive: 67 µM
11,CCN(CC)Cc1cc(Nc2c3ccccc3nc3c2[nH]c2ccccc23)cc(CN(CC)CC)c1O,active: 0.8 µM
12,COc1ccc(-c2nc(Sc3c([N+](=O)[O-])ncn3C)n[nH]2)cc1,inactive: 7.66 µM
13,Fc1ccc2nc3n(c2c1)C(c1c(Cl)cccc1Cl)SC3 (stereo not given),inactive: > 100 µM
14,CC(=O)C1(c2ccccc2)CCCN(C)CC1 (stereo not given),inactive: > 100 µM
15,COc1cc(C2SCC(=O)N2c2cc(Cl)c(Cl)cc2Cl)cc(OC)c1OC (stereo not given),inactive: 36.8 µM
16,CC12CCCC3(CC(=O)C(C)(C)C3C(=O)C1)C2 (stereo not given),inactive: > 100 µM
17,COC1CC2C=CC3C4OC2(/C(C)=C/C(C)C(C(C)O)OC1=O)C3C(O)C(C)C4OC(=O)c1ccc[nH]1 (stereo not given),inactive: > 100 µM
18,Cc1ccc(C(=O)C(C2=Nc3nnc(N)n3C2=O)C2=Nc3nnc(N)n3C2=O)cc1,inactive: > 100 µM
19,COc1ccc(C2=Nc3ccccc3N=C(SC)C2)cc1,inactive: > 100 µM
20,COC(=O)C(C/C=C(\C)c1ccccc1)C(C)=O (stereo not given),inactive: > 100 µM
21,O=S1(=O)OCCOS(=O)(=O)C1Br,inactive: > 100 µM
22,Cc1cccc(C(C)(C)C)c1NC(=O)C(=O)Cc1nc2ccccc2s1,inactive: > 100 µM

#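 48-hour exposure; five concentrations; linearly interpolated endpoints. GI50: concentration for 50% inhibition of growth.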 Activity calls are given as the source filed them. Cut-off read from the data, not from the text of the source: active = GI50 up to about 1.1 µM and inactive = higher.
